The source gives no read counts; variants with many changes may rest on few reads.
B1: LINE1-mini (parent)
chain: GGCAGAGCUCAACACAGCGUGGCAAAGUGGCUGUGGCUAGACUGCC

Variants of: B1
Experiment: self-cleavage, relative activity (ratio to wild type); higher = more cleavage; in vitro, sequencing; the parent is a self-cleaving ribozyme
In the case of GGCAGAGCUCAUCACAGCGUUGCAAAGUAGCGGUGGUUAGACUGCC [A12U G21U G29A U32G C37U], the self-cleavage is reported as 0.04. With GACAGAGCUCAACAUAGAGUGGCAAAGUGUCUGUGGCUAGACUGCC [G2A C15U C18A G30U] the self-cleavage was 0.11. For AGCAGAGCUCAACACAGCGCGGCAAAGUGGCGGUGGCUAGACUGGC [G1A U20C U32G C45G], the self-cleavage was 0. For GGCAGAGCUCAGCACAGCGUGGCAAUGUGGCUGUGGCUAGAAUGCC [A12G A26U C42A], the self-cleavage was 0.01. With GGCAGAGCUCCACAAAGCGUGGCAAAGAGGCUGGGGCUAGACUGCC [A11C C15A U28A U34G] the self-cleavage was 0.01. Variant GGCACAGCUCACCACAGCGUGGCAUAGUGGCUGUGGCUAGACUGCC [G5C A12C A25U] has a self-cleavage of 0.01. For GGCAAAGCUCAACACAGCAUGGCAAAGUGGCUGUGGCCAGACUGCC [G5A G19A U38C], the self-cleavage was 0.06. With GGCAGAGCUCAACACAGCGUGGCAAAGUGGUUGUGGCUAGACUUUG [C31U G44U C45U C46G] the self-cleavage was 0.03. With GGCAGAUCUCAACACUGCGCGGCAAAGUGGCUGUGUCUAAACUGCA [G7U A16U U20C G36U G40A C46A] the self-cleavage was 0.02. For GGCAGAGCUGAACACAGUGUGACAAAGUGGCUGUGGCUAGACUGCU [C10G C18U G22A C46U], the self-cleavage was 0.11. CGCAGAGCUCAACACAGCGUGGUAAAGUGGCUGUGGCUCGACUGCC [G1C C23U A39C] gave a self-cleavage of 0. GGCAGAGCCCAACACAGCGUGGCAAAGUGGCUGUGUCUACACUGCC [U9C G36U G40C] gave a self-cleavage of 0.04. Variant GGCGGAGCUAAAUACAGCGUGGCAAAGUGGCUGUGGCUAGACUGCC [A4G C10A C13U] has a self-cleavage of 0.03. GGCAGCGCUCAACACAGCGUGGUAAAGUGGCUGUGGCUAGUCUGCC [A6C C23U A41U] gave a self-cleavage of 0.11. Variant GUCAGACCUCUACAAUGCGUGGCAAAGUGGCUGGGGCUAGCCUGCC [G2U G7C A11U C15A A16U U34G A41C] has a self-cleavage of 0.01. In the case of GGCAGAGCUGAAAACAGCUUGGCAAAGUGGCUGUGGAUAGACUGCC [C10G C13A G19U C37A], the self-cleavage is reported as 0. Work on GGCAGUGAUCAACACAGCGUGGCAAAGUGGCUGUGGUUAGACUGCC [A6U C8A C37U] yielded a self-cleavage of 0.02. Variant GGCAGAGCUCAACACCGCGUGGCAAAGUGGCUGUGGCUAUACAGCC [A16C G40U U43A] has a self-cleavage of 0.19. For CGCAGAGCUCAACACAGCGUGGCAAAGUGGCUUUGGCUGGACUGCC [G1C G33U A39G], the self-cleavage was 0.01. Variant GGCACAGCUCAACCCAGCGUGGCAAAGUGGCUGUGGCUAGGCUGCC [G5C A14C A41G] has a self-cleavage of 0.03. Variant GGCAGAGCUCAACACCGCGUAGCAAAGUGGCUGUGACUAGACUGCC [A16C G21A G36A] has a self-cleavage of 0.02. GGCAGACCUCUACACAGAGUGGCAAAGUGGCUGUGGCUAGACUGUU [G7C A11U C18A C45U C46U] gave a self-cleavage of 0.02. Variant GGCAGAGCUCAACACAGGGUGGCAGAGUGGCUGUAGCUAUACUGCC [C18G A25G G35A G40U] has a self-cleavage of 0.45. With GGCAGAGCUCGACACAGCGUGUCAAAGUCUCUGUGGCUACACUGCC [A11G G22U G29C G30U G40C] the self-cleavage was 0.02. With GGCAGAGCGCAACACAGCGUGGCAAAGUGGCUCUGGCUAGAGUGCC [U9G G33C C42G] the self-cleavage was 0.01. In the case of GGCAAAGCCCGACACAGCGUGACUAAGUUGCUGUGGCUAGAGUGCC [G5A U9C A11G G22A A24U G29U C42G], the self-cleavage is reported as 0. GGUAGAGCUCAUCACAGCGUGUCAAAGUGGCUGUGGCUAGACUGCC [C3U A12U G22U] showed a self-cleavage of 0.17. Work on GGCAGACCUCAACACAGCGUGGCAAAGUGGCUGUGUCUAGACUACC [G7C G36U G44A] yielded a self-cleavage of 0.07. GGCAGCGCUCAACACAGCAUGGCAAAGUGGAUGUGGCUAGACCGCC [A6C G19A C31A U43C] gave a self-cleavage of 0.05. Variant GGCAGAUCCCAACACAGCGUGGCAAAGUGGCUGUGGCUAGACUGUC [G7U U9C C45U] has a self-cleavage of 0.03. GGCAGAGCGCAACACAGCGUGUCAAAGUGGCCGUGGCUAGACUACC [U9G G22U U32C G44A] gave a self-cleavage of 0.07. With GGCAGAGCUAAACUCAGCGUGGCAAAGUGGCUGUGGCCAGACUGCC [C10A A14U U38C] the self-cleavage was 0.03. Variant GGCAGAGCUCAAAACAGCGUGGCGAACGGGCUGUGGCUAGACUGCC [C13A A24G G27C U28G] has a self-cleavage of 0.13. GGCAGAGCUCAACACUGCGUGGCAUAGUGGCUGUGGCAAGACUGCG [A16U A25U U38A C46G] showed a self-cleavage of 0.01. GACAGACCUCAACACAGCGUGGCAAAGUCGCUGUGGCUAGUCUGCC [G2A G7C G29C A41U] showed a self-cleavage of 0.05. In the case of GGCAGACCUCAACACCGCGUGGCAAAGUGGCUGUGGCUAGACUGAC [G7C A16C C45A], the self-cleavage is reported as 0.06. Variant GGCAAAGCUCACCACAGCGUGGCGAAGUGGCUGUGGCUACACGGCC [G5A A12C A24G G40C U43G] has a self-cleavage of 0.01. GGCAGUGCUCAACUGAGCGUGGCAAAGUGGCUAUGGUUAGACUGCG [A6U A14U C15G G33A C37U C46G] gave a self-cleavage of 0.01. GGCACAGCUCAACACUCCGUGGCAAAGUAGCUGUAGCUAGACUGCC [G5C A16U G17C G29A G35A] gave a self-cleavage of 0.03. In the case of GGCAGAGCUAAACCUAUCGUGGCAAAGUGGCUGUGGCUAGACAGCC [C10A A14C C15U G17U U43A], the self-cleavage is reported as 0.01. GGCUGAGCUCAACACAGCGUGGCAAAGUCGCUGUAGCUAGACUGCC [A4U G29C G35A] gave a self-cleavage of 0.05. GGCAAAGCUCAACACAGCGUGCCAAAGUGGAUGUGGCUAGACUGCA [G5A G22C C31A C46A] gave a self-cleavage of 0.02. GGCAAAGCUCAACACAGCGUGGCAAAGCGGCUGUGGCUAUACUGCC [G5A U28C G40U] gave a self-cleavage of 0.02. Variant GGCUGAGCUCAACACAGCGUGACAAAGUGGCUGUGGCGCGCCUGCC [A4U G22A U38G A39C A41C] has a self-cleavage of 0.04. GGCAGAUCUCAACACAGCGUGGCAAAGUGGCAGUGACUAGACUGCC [G7U U32A G36A] gave a self-cleavage of 0.05. GGCAGAGUUCAACACAGCGUGGCAUAGUGGCUGUGGCUAACCUGCC [C8U A25U G40A A41C] showed a self-cleavage of 0.02. Work on AGCAGAGCUGAACACAGCGUGGCAAAGUGGCUGUGGGUAGACUGCC [G1A C10G C37G] yielded a self-cleavage of 0.02. In the case of GGCAGAGCUCAACCCAGCGUGGAAAAGUGGCCGUGGCUAGACGGCC [A14C C23A U32C U43G], the self-cleavage is reported as 0.07. With GGCAGAGCUCAACACAGCCUGGAAAAGUGGCUGUGGCUAAACUGCC [G19C C23A G40A] the self-cleavage was 0.02. GUCAGAGCUCAACACAGCGUGGCAGAGUGGCUUUGUCUAGUCUGCC [G2U A25G G33U G36U A41U] showed a self-cleavage of 0.02. In the case of UGCAGAGCUCAACACAGCGGGGCAAAGUGGCUGUGGCUAUACUGCC [G1U U20G G40U], the self-cleavage is reported as 0.01. UGCAGUGCUCAACACAGCGUGGCAAAGCGGCUGUGGCUAGGGUGCC [G1U A6U U28C A41G C42G] showed a self-cleavage of 0.07. Work on GACAGAACUCAACACAGCGUGGCAAAGCGGCUGUGGAUAGACUGCC [G2A G7A U28C C37A] yielded a self-cleavage of 0.19. For GCCUGAGCGCACCUCAGCGUGGCAAAGUGGCUGUGGCUAGACUGCC [G2C A4U U9G A12C A14U], the self-cleavage was 0.04. Variant GGCAGAGCUCAACACUGGGUUGCAAAGUGGCUGUGGCUACACUGCC [A16U C18G G21U G40C] has a self-cleavage of 0. With GGAAGAGCUAAACACAGCAUGGCAAAGUGGCUGUGACUAGACUGCC [C3A C10A G19A G36A] the self-cleavage was 0.07.

From the RNAGym collection of RNA variant scans (doi:10.7554/elife.90254)
